Source: PubChem BioAssay AID651582 (Sanford-Burnham Center for Chemical Genomics, 2012)
This is one part of the list. Shown are side measurements of this screen, not its main read-out; they come without a call. Most of these compounds were active or inconclusive in the main read-out, so they are no random draw.

experiment: TAG lipid buildup reduction in H9c2 cells – cell-based, uHTS, fluorescence, primary screen (AID 651582); conditions: Nile Red lipid (TAG) fluorescence, measured here:, at 12.5 µM, cells loaded with 200 µM oleic acid

| SMILES | DAPI nuclei signal change (viability), lower = more cytotoxic [%] |
| --- | --- |
| O=C(Nc1nc2nc(-c3ccccc3)cc(-c3ccccc3)n2n1)c1ccco1 | 8.86 |
| O=C(Nc1ccc(S(=O)(=O)N2CCOCC2)cc1)c1ccc([N+](=O)[O-])s1 | -49.5 |
| O=C(Nc1cccc(-c2csc(Nc3ccc(Cl)cc3)n2)c1)c1cc([N+](=O)[O-])cc(C(F)(F)F)c1 | -13.6 |
| O=C(Nc1ccccc1)c1nc[nH]c1C(=O)NCCCCCCNC(=O)c1[nH]cnc1C(=O)Nc1ccccc1 | 10.6 |
| O=C(NC1CCCC1)C(c1c[nH]c2ccccc12)N(C(=O)Cn1nnc(-c2ccc(Cl)cc2)n1)c1ccccc1 (centres undefined) | -20.2 |
| O=C(N/N=C/c1cc(Br)ccc1O)c1ccncc1 | -16.2 |
| CCCC(=O)Nc1ccc2nc(SCC(=O)Nc3ccc(N4CCOCC4)c(Cl)c3)sc2c1 | -9.64 |
| O=C(NCCCCCCCN1CCCCCCC1)C(C1CCCCC1)C1CCCCC1 | -31.3 |
| Cc1ccc(C2C(C=Nc3c(C)n(C)n(-c4ccccc4)c3=O)=C(c3ccccc3)Oc3ccccc32)cc1 (centres undefined) | -11.3 |
| Cc1c(P(=S)(c2ccccc2)c2ccccc2)[n+]2ccccc2n1C/C=C/c1ccccc1 | -14.7 |
| O=C(COc1ccc(Br)cc1CNC1CCCCC1)NCCc1ccccc1 | -26.1 |
| Oc1ccccc1C(Nc1nccs1)c1ccc2cccnc2c1O (centres undefined) | -21.8 |
| CC(C)c1ccc2c(c1)C(c1ccc(N3CCOCC3)cc1)=NNC(c1cccs1)=N2 | -13.1 |
| CC(=O)n1cc(N(C(=O)CCl)c2ccccc2)c2ccccc21 | -14 |
| OCCCn1c(C2CCCN2c2nc(-c3ccc(Cl)cc3)cs2)nc2cc(Cl)c(N3CCCCC3)cc21 (centres undefined) | -3.3 |
| COc1ccc(S(=O)(=O)N2N=C(C)Oc3ccccc3C2=O)cc1 | -35 |
| CCCCCCCCCCCCCCCC[N+](C)(C)CCl | -44.6 |
| CCCCCCN(C(=O)CCCCCN1C(=O)NC(c2ccc([N+](=O)[O-])cc2)C(C(=O)OCc2ccccc2)=C1C)C(C(=O)NCCCC)C1CCCCC1 (centres undefined) | -16.5 |
| Cc1ccc(-c2nn(-c3ccccc3)cc2NC(=O)CCl)cc1 | -37.1 |
| COc1cc(C2C(C#N)=C(N)Oc3cc(N)ccc32)cc(OC)c1OC (centres undefined) | -28.1 |

| SMILES | DAPI nuclei signal change (viability), lower = more cytotoxic [%] |
| --- | --- |
| C=CC(=O)Nc1ccc(CN2C(=O)N(c3c(Cl)c(OC)cc(OC)c3Cl)Cc3cnc(NCCCCN(CC)CC)nc32)cc1 | -47.2 |
| CSCCOC(=O)c1[nH]c2c(c1C)C(=O)CC(c1ccco1)C2 (centres undefined) | -36.3 |
| CCCCCc1cc(=O)oc2c(C(CCN3CCCCC3)c3ccc4c(c3)OCO4)c(OC)cc(OC)c12 (centres undefined) | -48.4 |
| COc1cc(NC(=O)c2cc([N+](=O)[O-])ccc2NC(=O)CN2CCN(c3ccccn3)CC2)cc(OC)c1 | -23.3 |
| Cc1ccc2c(c1)N(C(=O)CCC(=O)NCCCN1CCC(Cc3ccccc3)CC1)CCO2 | -32.2 |
| c1ccc(Nc2nc(N3CCNCC3)nc(N3CCOCC3)n2)cc1 | -26.5 |
| COc1ccc(Oc2nc(-c3ccccn3)nc3ccccc23)cc1 | -21 |
| O=C(COC(=O)C1=COCCO1)NCc1ccc(Cl)cc1Cl | -49.8 |
| CCOc1cc(CNC(C)(C)C)ccc1OCC(=O)Nc1cccc(C(F)(F)F)c1 | -41.5 |
| CC1CCC(C(C)C)C(OC(=O)Cn2c(-c3ccc(Br)cc3)[n+](C)c3ccccc32)C1 (centres undefined) | -18.7 |
| CCCOC(=O)c1ccc(NC(=O)CCOc2ccccc2)cc1 | 1.85 |
| Cc1nn(Cc2c(Cl)cccc2Cl)c(C)c1NC(=O)c1cn(-c2ccccc2)nc1-c1ccccc1 | -6.12 |
| C=CC[C@@H](CC(=O)N(CCO)Cc1ccccc1)C(=O)N[C@H](COC(=O)[C@@H](CC=C)CC(=O)OC(C)(C)C)C(C)(C)C | -7.71 |
| COc1cc(NC(=O)Nc2nc(C(N)Cc3ccc(C(F)(F)F)cc3)cs2)cc(OC)c1OC (centres undefined) | -32.6 |
| Oc1ccc(N=Nc2ccc3c(c2)OCCO3)c2cccnc12 | -47.2 |
| CCOc1ccc2nc(NC(=O)C3CCCN(S(=O)(=O)c4c(C)noc4C)C3)sc2c1 (centres undefined) | -6.13 |
| CCC(=O)Nc1nonc1-c1nc2ccccc2n1Cc1cccc2ccccc12 | -18 |
| Cc1c(C(=O)N2CC3(CC(c4cccc(NC(=O)CC(c5ccccc5)c5ccccc5)c4)=NO3)C[C@@H]2C(N)=O)cc([N+](=O)[O-])cc1[N+](=O)[O-] (some centres undefined) | -1.18 |
| CCOc1ccc(CCNC(=O)Cn2c(-c3nonc3N)nc3ccccc32)cc1OCC | -6.02 |
| CCN(CC)CCNC(=O)c1c(C)n(-c2ccccc2)c2cc(Br)c(OC)cc12 | -10.7 |

| SMILES | DAPI nuclei signal change (viability), lower = more cytotoxic [%] |
| --- | --- |
| NC(Cc1ccc(C(F)(F)F)cc1)c1csc(Nc2nncc3ccccc23)n1 (centres undefined) | -11.9 |
| CCCC(=O)NC(c1ccc(C)cc1)c1ccc2cccnc2c1O (centres undefined) | -43 |
| CCOC(=O)Nc1nc(-c2ccccc2)c(C(=O)c2ccc(Cl)cc2)s1 | -28.2 |
| Cc1sc(NC(=O)c2cccc([N+](=O)[O-])c2)c(C(N)=O)c1-c1ccc(C(C)(C)C)cc1 | -5.33 |
| Cc1ccc(/C=N/NC(=O)c2c(C)nc3ccc(Br)cn23)cc1 | -30.8 |
| COC(=O)c1ccc(Cl)c(NC(=O)NC23CC4CC(CC(C4)C2)C3)c1 | -9.34 |
| CC1(C(=O)NCc2ccco2)Cc2c(-c3cccc(C(F)(F)F)c3)ccnc2O1 (centres undefined) | -39.4 |
| COc1cccc(C2c3c(C)nn(-c4ccc([N+](=O)[O-])cc4)c3N=C3C(=O)Nc4ccccc4N32)c1 (centres undefined) | -28.1 |
| CC(C)CNC(=O)c1coc(=O)c(Br)c1 | -39.6 |
| Cc1occc1C(=O)NC(C)CCc1ccccc1 (centres undefined) | 1.56 |
| COc1cc(C)c2sc3ccccc3c(=O)c2c1NCCN(C)C | -39.1 |
| CN(C)CCNC(=O)c1cccc2nc3c(ccc4ccccc43)nc12 | -11.4 |
| COc1ccc(OC)c(C2CC(c3ccccc3)=NN2C(=S)Nc2ccccc2)c1 (centres undefined) | -41.1 |
| Cc1cc(C(=O)COC(=O)c2ccc([N+](=O)[O-])o2)c(C)n1CC1CCCO1 (centres undefined) | -44.3 |
| CCCCCc1cc(=O)oc2c(C(CCN3CCCC3)c3cc(OC)c(OC)c(OC)c3)c(OC)cc(OC)c12 (centres undefined) | -43.2 |
| CC(C)C[C@H](CO)N(Cc1ccccc1)S(=O)(=O)N(Cc1ccccc1)[C@@H](CO)CC(C)C | -3.88 |
| CCCCCc1cc(=O)oc2c(C(CCN3CCN(c4ccccc4)CC3)c3ccc4c(c3)OCO4)c(OC)cc(OC)c12 (centres undefined) | 10.3 |
| CCC(=O)Nc1ccc(C(=O)Cn2ncc(Cl)c(Cl)c2=O)cc1 | -39.6 |
| Cc1cc(=O)oc2cc(NC(=O)c3cccc(Br)c3)ccc12 | -29.3 |
